# Laboratory results as given in the supplement of paper PMC10126150.
# Values marked as one replicate rest on one cluster of the flow cell; about a third of the high ones do not repeat.
# System: ATP
# Assay: switch fluorescence ratio, 500 uM ATP over buffer (Cy3 cluster intensity, sum of 5 cycles each) (fold (ratio)); higher = stronger signal-on switching upon ATP binding; sequences stand for … in TCGTCGGCAGCGTCAGATGTGTATAAGAGACAGTTTTTTTTTTTTTTTTTTTTTTTTT…TC
# Conditions: aptamer strand: ATP DNA aptamer (quencher-CACCTGGGGGAGTATTGCGGAGGAAGG + anchor), 100 nM annealed; ATP concentration: 500 uM; one replicate
# How it was run: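 Switching-strand clusters labelled with Cy3 on a modified Illumina MiSeq flow-cell were annealed to 100 nM quencher-labelled ATP aptamer, imaged in selection buffer, and re-imaged after 15 min with 500 uM ATP at 22 °C. This was done over five cycles with NaOH stripping and re-annealing in between. The fluorescence ratio is summed target-cycle over summed buffer-cycle Cy3 intensity per cluster, averaged per switch-domain sequence, excluding clusters outside 100-1000 RFU.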
# 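Note: ATP exposure 15 min at 22 °C before imaging.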
row,Sequence,switch fluorescence ratio
1,AGTGTTACT,0.985
2,TTGGCTATGG,0.937
3,GAAATCCTGC,1.03
4,GCCAGTTAGG,1
5,TGCTTTAGCC,1.05
6,CGGTTGTTAT,0.973
7,TGACTTAAGT,0.997
8,TCTCATTAGC,0.997
9,CGCGGAGGAT,0.971
10,CTCTTGGACG,0.983
11,TATTTATGAT,0.963
12,GCCGTCCCCC,0.982
13,GAACTGCTTC,0.986
14,AAGGTGTGGT,1.02
15,TCAAGCGGTG,1.03
16,CCCCCGCGGT,1.07
17,AGAATGATTC,1.01
18,TTACAGTCTT,1.02
19,CCCCAATGCT,1.28
20,ACCTTGGCCC,0.955
21,CGTAGCCATT,1.01
22,CTCTCCTTCT,1.07
23,CAGGTTTAC,1.01
24,TAGATGGTA,1.02
25,TAATTGTTCC,1.03
26,TAAGTGGTTC,1

row,Sequence,switch fluorescence ratio
1,AATATATTG,0.959
2,CTCTTTTATA,0.98
3,GGATCATGAT,1
4,GTCAGGGGT,1.11
5,AATTTGCTTA,1.02
6,TCCATATGGA,0.928
7,GTCAATGGGT,1.08
8,ACAGGCGCCG,1.09
9,GTCATCCTTT,0.964
10,CGGCAGGACG,0.981
11,CCGATGTTAT,2.67
12,GGTGCTGTG,0.999
13,ATCGTGAACG,1.03
14,TGGGGTGCCT,1
15,CCTAAATAAT,1.1
16,CAGTAATGGG,0.988
17,CCAGGCAACG,1.04
18,CCGTGAGCGG,1.11
19,CCTATTTTCA,1.02
20,GCACACTGTT,1.01
21,TATACGTTCG,1.04
22,CTTTTGGTCC,1.02
23,GACGGCTGAC,1.05
24,AAGCTCCCTC,1.18
25,ACGAACATTT,1.29
26,TTGGGCGATA,0.968

row,Sequence,switch fluorescence ratio
1,AAGCAATTCT,4.87
2,TTCTCAGCCT,1.07
3,TCCATAGACT,1.01
4,CAAGGTTTAT,0.998
5,TACTCAGTTA,1.05
6,AACCAGGCAA,1.31
7,GATGTAAAAC,1.13
8,GTGCGCAAAG,1.04
9,CGGCATTGCA,1.03
10,TAATCCATGG,1.03
11,CAATGGTATT,1.04
12,CTGACAAGAG,1.09
13,ATGCTGCGTC,0.974
14,TTTCAATT,1.01
15,TTAATCGTTT,1.07
16,GTTGCTAGCT,0.993
17,GAATTCAGAT,0.972
18,CTTACGCGGC,1.04
19,GCTACCGGGA,1
20,TTAGGTAAGG,1.01
21,TAGTGATAGA,1.07
22,TTCGCGGAC,3.97
23,GGAGTGGGTT,1.01
24,CTTAATGGGA,0.991
25,GATAGTTTGG,1.01
26,ACTCAGTCCT,1.09

row,Sequence,switch fluorescence ratio
1,TGTGAGGCCT,1.08
2,GTTAGGCTG,0.955
3,AGAGTGGGTT,1.03
4,AGGTCTAGGA,1.09
5,GGTGGATGTG,0.991
6,TTTCTATGAG,0.958
7,GCAATTCTAA,1.13
8,CGCTTACAAA,1.01
9,CACACGGATA,1.06
10,TATGCTAAGC,0.979
11,TAGCGTGGTC,1.01
12,GGCGCCTGG,0.949
13,AAGGGCTGTA,0.977
14,TAACTAAGTA,1
15,CAGATGGCG,0.941
16,GAATTACTTT,1.02
17,AAGTCCGCCA,1.74
18,AGGGTCGGGT,0.974
19,ATCATTTGAT,1.01
20,CCAACCGGAT,1.05
21,CTACTATTTG,1.03
22,CAGTTCGTT,0.966
23,CAACTCACGC,1.43
24,CTGTGTGCTT,0.998
25,AGCAATCCAT,1.21
26,GAAGCTTTGG,0.98

row,Sequence,switch fluorescence ratio
1,CAAGCAAGAG,3.33
2,CTTGGAAGTC,1.05
3,TTTGTCCTAC,1
4,AGGTAATGCT,1.06
5,GGATAAATAA,0.985
6,TACTGCGTTA,0.998
7,GTTAAAGCGA,1.02
8,GGTGGCGAGT,1.01
9,GAATATTAAC,1.03
10,CGGAGAGGGC,1.09
11,CCAGGCTGGT,1.04
12,AGCAAAGCTA,0.949
13,CATGTGAAAA,1.05
14,AATTAAAACG,1.02
15,AACTGCAAGA,1.16
16,AGGATTAAA,0.969
17,CTTATCCCTT,0.993
18,AGGGTGAT,1.01
19,TTGATTTTG,1.04
20,TAGTTGTCA,0.971
21,AACACCTTTA,1.06
22,CTGGCGGGAT,1.03
23,TGCAGTGACG,0.989
24,CCGTTGCCCA,1.09
25,TCGAGGCGGT,1.12
26,GGACTTACTG,1.02

row,Sequence,switch fluorescence ratio
1,GCCGGAGGTG,0.957
2,AGGTGCGTGC,1.01
3,TGTTCATCGA,0.981
4,AGGTTCATGA,1.02
5,ACGAAACAAA,0.982
6,AAGACTGCAC,1.34
7,GAAGGGACGC,1.04
8,GACGTCAAT,1.06
9,GATAACTCTC,1.08
10,CGATAATTCG,1.02
11,TTGGATTCAC,1.01
12,TTTGGTTCAT,1.04
13,ACGGTTAATT,1.06
14,ACTTCCATCA,1.05
15,TCTATGTGGA,0.998
16,ATTACGACCT,1.46
17,GGTGATCAAG,1.04
18,GTGGACCCAT,0.955
19,AGATCCACAT,1.03
20,TCGGATACG,1
21,CTCCTCACGA,1.73
22,CTATTTGAGT,0.943
23,TTGTGGGCA,1.02
24,ACGTGGCAGG,1.03
25,CCAATCAACG,1.07
26,CATTGTGTCA,0.971

row,Sequence,switch fluorescence ratio
1,ATGATAAGGA,1.04
2,CATTATTTAA,0.977
3,TTAATAAGCC,0.983
4,CGCATCCTAA,1.1
5,CACTCAATTG,1.03
6,GGCGCCCTGT,0.957
7,TCGACTAAAT,1.12
8,GTCTGTAAAT,0.999
9,TAATGACGAG,1.06
10,CAAAACTGCG,1.07
11,TGACAGCGGA,1.03
12,TTCGCTATA,1.57
13,GAACTCCGTG,1.21
14,GAACGATGGT,0.949
15,GTGATGGGTA,1.01
16,GTAACTGATT,1.02
17,TACCCAACGG,1.23
18,CTAGGTCTTA,1.03
19,ACCTTCCTGT,2.57
20,TCATATCTTT,0.981
21,CCCCGGGATA,2.48
22,GAGGAGTTAC,1.04
23,CATCAAGAGA,1.04
24,TTTCGCGCAA,3.2
25,TAAAATTGTG,0.992
26,TCGAGAACTG,1.09

row,Sequence,switch fluorescence ratio
1,CAGGAAATGA,1.02
2,ATAGACTCTT,0.994
3,CCGGGGGAAA,0.972
4,TAGGGACGGA,1.06
5,TTTCATGCCT,1.03
6,CAGCATCGAT,1
7,ACGACCCTGA,1.31
8,TAGCATCAAG,0.951
9,CCTCATAGAT,1.52
10,AGATACGTC,1.03
11,TTAGCGATAA,2.33
12,ATCATATAGA,0.999
13,TGATCTGCAC,1.29
14,CCCAGCGAAG,0.983
15,GGCGTACAGG,1.01
16,ATCAGTTCGA,0.989
17,AGTAATAGAG,0.968
18,TTGTTCTGA,0.995
19,CTCGATTGGT,0.957
